{
  "source": "PubChem BioAssay (Tox21)",
  "key": {"[1]": {"assay": "qHTS assay to identify small molecule agonists of the endoplasmic reticulum stress response signaling pathway (AID 1159516; active = well fitted activation curve with a large enough effect in the signal ratio in the repeat runs, not every such curve was filed as active; inconclusive = weak or mixed curves, or effect the other way; the % refers to the signal ratio; for activation: % is set by controls: 0 for no effect and ±100 for the full control effect)", "details": "ESRE-bla HeLa, ER stress beta-lactamase reporter, 5 h; activation: at 61 µM (top of the series) unless noted", "how_it_was_run": "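Tox21 10K library screened in quantitative HTS format on ESRE-bla HeLa cells, a beta-lactamase reporter under ER stress response element control; 5 hr treatment, FRET read.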"}, "[2]": {"assay": "qHTS assay to identify small molecule agonists of the endoplasmic reticulum stress response signaling pathway - cell viability counter screen (AID 1159517); note: nearly all actives have a fitted effect of over 50% in size", "details": "ESRE-bla HeLa viability, CellTiter-Glo luminescence, 5 h; series mostly up to 61 µM", "how_it_was_run": "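HeLa cells carrying an ESRE-driven beta-lactamase reporter receive compound for 5 hr at 37 C. Cell viability is then gauged with CellTiter-Glo by luminescence, 30 min at room temperature.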"}, "[3]": {"assay": "qHTS assay to identify small molecule antagonists of the retinoid-related orphan receptor gamma (ROR-gamma) signaling pathway - cell viability counter screen (AID 1159520; active = well fitted curve in the direction sought with a large enough effect in the repeat runs; inconclusive = weak or mixed curves; inactive = no such curve, though single readings can be large; an effect the other way counts as inactive or inconclusive; note: nearly all actives have a fitted effect of over 50% in size)", "details": "Tet-on RORgamma CHO cells viability, ATP luminescence, 16 h; series mostly up to 92.4 µM", "how_it_was_run": "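Cytotoxicity was read from cellular ATP (CellTiter-Glo luminescence) after 16 hr at 37 C with 1 uM doxycycline induction. The inducer was added 2 hr after compound transfer to Tet-on ROR gamma CHO cells.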"}, "[4]": {"target": "Nuclear receptor ROR-gamma (Homo sapiens) (UniProt P51449)", "assay": "qHTS assay to identify small molecule antagonists of the retinoid-related orphan receptor gamma (ROR-gamma) signaling pathway (AID 1159521; active = well fitted curve in the direction sought with a large enough effect in the repeat runs; inconclusive = weak or mixed curves; inactive = no such curve, though single readings can be large; an effect the other way counts as inactive or inconclusive; note: nearly all actives have a fitted effect of over 50% in size)", "details": "Tet-on RORgamma CHO cells, RORE-luciferase, 16 h; series mostly up to 92.4 µM", "how_it_was_run": "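CHO cells expressing RORγ under a TET-on promoter, luciferase under RORE control. Dox 1 uM final, 16 h; compounds added 2 h prior. Luminescence decrease measured.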"}, "[5]": {"assay": "qHTS assay to identify small molecule agonists of the AP-1 signaling pathway (AID 1159526)", "details": "ME-180 AP-1-bla reporter, beta-lactamase FRET ratio, 5 h; activation: at 76.8 µM (top of the series) unless noted"}, "[6]": {"target": "Retinoic acid receptor RXR-alpha (Homo sapiens) (UniProt P19793)", "sequence (P19793 whole entry, looked up)": "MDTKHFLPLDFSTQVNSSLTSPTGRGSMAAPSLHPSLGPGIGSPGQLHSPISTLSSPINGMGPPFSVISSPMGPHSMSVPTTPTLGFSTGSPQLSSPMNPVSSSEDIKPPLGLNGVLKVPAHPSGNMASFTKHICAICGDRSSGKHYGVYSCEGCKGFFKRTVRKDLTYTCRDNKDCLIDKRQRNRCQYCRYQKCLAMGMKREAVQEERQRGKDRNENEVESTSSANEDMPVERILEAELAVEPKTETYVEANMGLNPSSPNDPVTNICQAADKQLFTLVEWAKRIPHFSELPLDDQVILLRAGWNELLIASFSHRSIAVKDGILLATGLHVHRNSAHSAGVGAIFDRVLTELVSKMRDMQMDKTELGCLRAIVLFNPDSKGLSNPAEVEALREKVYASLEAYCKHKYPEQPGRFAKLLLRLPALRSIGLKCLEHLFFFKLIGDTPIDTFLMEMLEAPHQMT", "assay": "qHTS assay to identify small molecule agonists of the RXR signaling pathway (AID 1159527); note: nearly all actives have a fitted effect of over 35% in size; for activation: % is set by controls: 0 for no effect and ±100 for the full control effect", "details": "HEK293T RXRa-UAS-bla, beta-lactamase ratio, 16 h; activation: at 76.8 µM (top of the series) unless noted", "how_it_was_run": "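Beta-lactamase reporter assay, agonist format. Engineered HEK 293T line, charcoal-stripped FBS at 2%, overnight (16 hr) exposure, fluorescence at 460 and 530 nm after 405 nm excitation.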"}, "[7]": {"assay": "qHTS assay to identify small molecule agonists of the RXR signaling pathway - cell viability counter screen (AID 1159529; active = well fitted curve in the direction sought with a large enough effect in the repeat runs; inconclusive = weak or mixed curves; inactive = no such curve, though single readings can be large; an effect the other way counts as inactive or inconclusive; note: nearly all actives have a fitted effect of over 50% in size)", "details": "RXR-alpha-bla HEK293T viability, CellTiter-Glo, 16 h; series mostly up to 76.8 µM", "how_it_was_run": "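Same-well viability check after the LiveBLAzer FRET read: CellTiter-Glo added, luminescence measured after 30 min at room temperature. Reporter HEK 293T cells had been treated with compounds for 16 hr following a 5 hr preincubation.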"}, "[8]": {"assay": "qHTS assay to identify small molecule agonists of the AP-1 signaling pathway - cell viability counter screen (AID 1159525); note: nearly all actives have a fitted effect of over 55% in size", "details": "ME-180 AP-1-bla cells viability, ATP luminescence, 5 h; series mostly up to 76.8 µM", "how_it_was_run": "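Luminescent ATP readout (Cell Titer Glo, 30 min RT), normalised to DMSO and tetra n-octyl ammonium bromide controls. Cells were ME-180 AP-1-bla in 0.5% dialyzed FBS Opti-MEM, with a 5 h, 37 °C compound exposure.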"}, "[9]": {"assay": "qHTS assay to identify small molecule antagonists of the vitamin D receptor (VDR) signaling pathway - cell viability counter screen (AID 743225; active = well fitted curve in the direction sought with a large enough effect in the repeat runs; inconclusive = weak or mixed curves; inactive = no such curve, though single readings can be large; an effect the other way counts as inactive or inconclusive; note: nearly all actives have a fitted effect of over 50% in size)", "details": "VDR-bla HEK293T viability, CellTiter-Glo luminescence, 16 h; viability change, negative = cytotoxic: at 61 µM (top of the series) unless noted", "how_it_was_run": "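Luminescent cell viability (CellTiter-Glo) in VDR-bla HEK 293T cells after 16 h compound exposure at 37C in the presence of 3 nM final 1-alpha,25-dihydroxy vitamin D3.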"}},
  "note": "Several values for one entry are separate records, joined by “and”; a condition that tells them apart may be missing. Equal values may be shown once. Inconclusive results, whose numbers are uncertain, are shown with a selection of clear calls. A potency beside an inconclusive call is a rough fit, not a confirmed value. Activity calls are given as the source filed them. Unless noted, calls come from the whole dose curve. Potency is the fitted concentration of half-maximal effect; tags give direction and shape of the fitted curve or compound fluorescence and quenching.",
  "data": [
    {"smiles": "OCCN1CCN(CCCN2c3ccccc3Sc3ccc(Cl)cc32)CC1", "values": [
      {"measurement": "Potency", "setting": "[1]", "result": "inconclusive: 21.3 µM"},
      {"measurement": "Potency", "setting": "[2]", "result": "inconclusive: 26.8 µM [cytotoxic]"},
      {"measurement": "Potency", "setting": "[3]", "result": "inconclusive: 33.5 µM [cytotoxic, single point]"},
      {"measurement": "Potency", "setting": "[4]", "result": "inconclusive: 13.3 µM [inhibitor, partial curve]"},
      {"measurement": "Potency", "setting": "[5]", "result": "inconclusive: 23.9 µM"},
      {"measurement": "Potency", "setting": "[6]", "result": "inconclusive: 3.01 µM [rising, partial curve, poor fit]"},
      {"measurement": "Potency", "setting": "[7]", "result": "active: 16.9 µM"}
    ]},
    {"smiles": "COc1ccc(C(=O)NCc2ccc(OCCN(C)C)cc2)cc1OC", "values": [
      {"measurement": "Potency", "setting": "[1]", "result": "inactive"},
      {"measurement": "Potency", "setting": "[2]", "result": "inconclusive: 0.107 µM [cytotoxic, full curve, poor fit]"}
    ]},
    {"smiles": "COc1cc2[nH]c(=O)[nH]c(=O)c2cc1OC", "values": [
      {"measurement": "Potency", "setting": "[1]", "result": "inactive"},
      {"measurement": "Potency", "setting": "[2]", "result": "inconclusive: 10.7 µM [cytotoxic, single point]"}
    ]},
    {"smiles": "CC[C@H]1OC(=O)[C@H](C)[C@@H](O[C@H]2C[C@@](C)(OC)[C@@H](O)[C@H](C)O2)[C@H](C)[C@@H](O[C@@H]2O[C@H](C)C[C@H](N(C)C)[C@H]2O)[C@](C)(O)C[C@@H](C)C(=O)[C@H](C)[C@@H](O)[C@]1(C)O", "values": [
      {"measurement": "Potency", "setting": "[1]", "result": "inactive"},
      {"measurement": "Potency", "setting": "[2]", "result": "inconclusive: 1.5 µM [cytotoxic, single point]"}
    ]},
    {"smiles": "CCCC1CCC(=O)CC1", "values": [
      {"measurement": "activation", "setting": "[1]", "result": "inconclusive: 0.109%"},
      {"measurement": "Potency", "setting": "[2]", "result": "inactive"}
    ]},
    {"smiles": "CC(CO)(CO)C(=O)O", "values": [
      {"measurement": "Potency", "setting": "[1]", "result": "inconclusive: 2.23 µM [falling, single point]"},
      {"measurement": "Potency", "setting": "[2]", "result": "inactive"}
    ]},
    {"smiles": "CC1CCC(C(C)CS)CC1S", "note": "(stereo not given)", "values": [
      {"measurement": "Potency", "setting": "[1]", "result": "inconclusive: 21.9 µM [cytotoxic, full curve]"},
      {"measurement": "Potency", "setting": "[2]", "result": "active: 19.5 µM"}
    ]},
    {"smiles": "CC(CO)CO", "values": [
      {"measurement": "Potency", "setting": "[1]", "result": "inconclusive: 58.5 µM [activator]"},
      {"measurement": "Potency", "setting": "[2]", "result": "inconclusive: 0.208 µM [cytotoxic, single point]"}
    ]},
    {"smiles": "Oc1ccc(C2CNCCc3c2cc(O)c(O)c3Cl)cc1", "note": "(stereo not given)", "values": [
      {"measurement": "Potency", "setting": "[1]", "result": "inactive"},
      {"measurement": "Potency", "setting": "[2]", "result": "inactive"}
    ]},
    {"smiles": "COC(CC(C)CCCC(C)(C)O)OC", "note": "(stereo not given)", "values": [
      {"measurement": "Potency", "setting": "[1]", "result": "inactive"},
      {"measurement": "Potency", "setting": "[2]", "result": "inconclusive: 12.3 µM [cytotoxic, single point]"}
    ]},
    {"smiles": "O=[N+]([O-])c1ccccc1Nc1ccccc1", "values": [
      {"measurement": "activation", "setting": "[1]", "result": "inconclusive: -6.95%"},
      {"measurement": "Potency", "setting": "[2]", "result": "inactive"}
    ]},
    {"smiles": "Nc1c(N=Nc2ccc(-c3ccc(N=Nc4cc(S(=O)(=O)O)c5ccccc5c4N)cc3)cc2)cc(S(=O)(=O)O)c2ccccc12", "values": [
      {"measurement": "Potency", "setting": "[1]", "result": "inconclusive: 24.5 µM [cytotoxic, single point]"},
      {"measurement": "Potency", "setting": "[2]", "result": "inconclusive: 17.4 µM [cytotoxic, full curve, poor fit]"},
      {"measurement": "Potency", "setting": "[3]", "result": "inconclusive: 9.68 µM [cytotoxic, full curve]"},
      {"measurement": "Potency", "setting": "[4]", "result": "inconclusive: 4.32 µM [inhibitor, full curve]"},
      {"measurement": "Potency", "setting": "[8]", "result": "inactive"},
      {"measurement": "Potency", "setting": "[5]", "result": "inconclusive: 2.19 µM [activator, partial curve]"},
      {"measurement": "Potency", "setting": "[6]", "result": "inactive"}
    ]},
    {"smiles": "S=c1nc[nH]c2nc[nH]c12", "values": [
      {"measurement": "Potency", "setting": "[9]", "result": "inconclusive: 19 µM [cytotoxic, partial curve, poor fit] and active: 4.25 µM"},
      {"measurement": "activation", "setting": "[1]", "result": "inconclusive: 2.89%"},
      {"measurement": "Potency", "setting": "[2]", "result": "inconclusive: 3.38 µM [cytotoxic, full curve] and inconclusive: 2.68 µM [cytotoxic, partial curve]"},
      {"measurement": "Potency", "setting": "[3]", "result": "inconclusive: 21.2 µM [cytotoxic, partial curve]"},
      {"measurement": "Potency", "setting": "[4]", "result": "inconclusive: 26.6 µM [inhibitor, full curve]"},
      {"measurement": "Potency", "setting": "[8]", "result": "inconclusive: 23.9 µM [cytotoxic, partial curve, poor fit]"},
      {"measurement": "Potency", "setting": "[7]", "result": "inconclusive: 1.35 µM [cytotoxic, full curve, poor fit]"}
    ]},
    {"smiles": "O=C1OC[C@H](Cc2cccc(O)c2)[C@H]1Cc1cccc(O)c1", "values": [
      {"measurement": "Potency", "setting": "[1]", "result": "inactive"},
      {"measurement": "Potency", "setting": "[2]", "result": "inconclusive: 16.6 µM [rising, single point]"}
    ]},
    {"smiles": "C=CC(=O)OCCCC", "values": [
      {"measurement": "Potency", "setting": "[1]", "result": "inconclusive: 17.9 µM [falling, partial curve, poor fit]"},
      {"measurement": "Potency", "setting": "[2]", "result": "inconclusive: 0.009 µM [cytotoxic, full curve, poor fit]"}
    ]},
    {"smiles": "CC1=CCC(=C(C)C)CC1", "values": [
      {"measurement": "Potency", "setting": "[1]", "result": "inactive"},
      {"measurement": "Potency", "setting": "[2]", "result": "inconclusive: 0.195 µM [cytotoxic, full curve, poor fit]"}
    ]},
    {"smiles": "O=C1Cc2cc(Cl)ccc2N1", "values": [
      {"measurement": "Potency", "setting": "[1]", "result": "inconclusive: 26.8 µM [rising, single point]"},
      {"measurement": "Potency", "setting": "[2]", "result": "inconclusive: 6.01 µM [cytotoxic, single point]"}
    ]},
    {"smiles": "O=C(Cn1ccnc1[N+](=O)[O-])NCCO", "values": [
      {"measurement": "Potency", "setting": "[1]", "result": "inconclusive: 0.213 µM [falling, single point]"},
      {"measurement": "Potency", "setting": "[2]", "result": "inconclusive: 5.35 µM [cytotoxic, single point]"}
    ]},
    {"smiles": "Oc1ccc2ccccc2c1N=Nc1ccccc1", "values": [
      {"measurement": "Potency", "setting": "[1]", "result": "inconclusive: 13.8 µM [cytotoxic]"},
      {"measurement": "activation", "setting": "[1]", "result": "inconclusive: -8.45%"},
      {"measurement": "Potency", "setting": "[6]", "result": "inconclusive: 1.38 µM [inhibitor, full curve]"},
      {"measurement": "Potency", "setting": "[7]", "result": "inconclusive: 27.5 µM [cytotoxic, partial curve] and inconclusive: 24.5 µM [cytotoxic, full curve]"}
    ]}
  ]
}
